# Source: patent US20160257760A1 (OXFORD BIOTHERAPEUTICS, published 2016)
# These are yes or no findings as the source states them, for the method shown. For some assays here: In cells and extracts the contact can be indirect. Some results given as binding are weak or reduced against the parent protein; the word gives no strength.
# T1: IQYKGHCY
# T1 sequence (peptide): IQYKGHCY
# T2: SRLTYSSR
# T2 sequence (peptide): SRLTYSSR
# T3: RLTYSSRC
# T3 sequence (peptide): RLTYSSRC
# T4: HPLLVSGR
# T4 sequence (peptide): HPLLVSGR
# T5: NFHPLLVS
# T5 sequence (peptide): NFHPLLVS
# T6: DCRSFKAL
# T6 sequence (peptide): DCRSFKAL
# T7: VFHAERIV
# T7 sequence (peptide): VFHAERIV
# T8: LLVSGRLR
# T8 sequence (peptide): LLVSGRLR
# T9: KVFHAERI
# T9 sequence (peptide): KVFHAERI
# T10: DQALHSFS
# T10 sequence (peptide): DQALHSFS
# T11: YKVFHAER
# T11 sequence (peptide): YKVFHAER
# T12: FHQHSILA
# T12 sequence (peptide): FHQHSILA
# T13: WEVKDCRS
# T13 sequence (peptide): WEVKDCRS
# T14: VSGRLRIP
# T14 sequence (peptide): VSGRLRIP
# T15: TVKYLNNL
# T15 sequence (peptide): TVKYLNNL
# T16: VKDCRSFK
# T16 sequence (peptide): VKDCRSFK
# T17: DCAAVKVF
# T17 sequence (peptide): DCAAVKVF
# T18: KDCRSFKA
# T18 sequence (peptide): KDCRSFKA
# T19: SNFHPLLV
# T19 sequence (peptide): SNFHPLLV
# T20: LVSGRLRI
# T20 sequence (peptide): LVSGRLRI
# T21: CSERHFVS
# T21 sequence (peptide): CSERHFVS
# T22: FHAERIVR
# T22 sequence (peptide): FHAERIVR
# T23: CRSFKALS
# T23 sequence (peptide): CRSFKALS
# T24: FHPLLVSG
# T24 sequence (peptide): FHPLLVSG
# T25: PLLVSGRL
# T25 sequence (peptide): PLLVSGRL
# T26: LY75 tryptic peptide … (1099-1109)
# T26 sequence (peptide): QTLQNASETVK
# T27: LY75 tryptic peptide … (896-910)
# T27 sequence (peptide): FPVTFGEECLYMSAK
# T28: LY75 tryptic peptide … (877 to 890)
# T28 sequence (peptide): ISEWPIDDHFTYSR
# T29: LY75 tryptic peptide … (1030-1044)
# T29 sequence (peptide): ELTYSNFHPLLVSGR
# B1: LY75_A1 monoclonal antibody (antibody, V domains shown)
# VH: EVQLVESGGGLVKPGGSLRLSCAASGFTYSNAWMSWVRQAPGKGLEWVGRIKSKTDGGTTDYAAPVQGRFTISRDDSKNTLYLQMNSLKTEDTAVYYCTIFGVVSFDYWGQGTLVTVSS
# VL: DVQMTQSPSSLSASVGDRVTITCRASQSISDYLSWYQQRPGKAPNLLIYAASNLKTGVPSRFSGSGSGTDFTLTISTLQPEDFATYYCQQSYRSPWTFGQGTKVEIKR
# notes: also called LY75A1 antibody; LY75_A1 antibody
# Columns and labels:
# [1] = biological target: T1, IQYKGHCY; assay: peptide microarray, 1 µg/mL LY75_A1, anti-human IgG Alexa 647
# [2] = biological target: T2, SRLTYSSR; assay: as above
# [3] = biological target: T3, RLTYSSRC; assay: as above
# [4] = biological target: T4, HPLLVSGR; assay: as above
# [5] = biological target: T5, NFHPLLVS; assay: as above
# [6] = biological target: T6, DCRSFKAL; assay: as above
# [7] = biological target: T7, VFHAERIV; assay: as above
# [8] = biological target: T8, LLVSGRLR; assay: as above
# [9] = biological target: T9, KVFHAERI; assay: as above
# [10] = biological target: T10, DQALHSFS; assay: as above
# [11] = biological target: T11, YKVFHAER; assay: as above
# [12] = biological target: T12, FHQHSILA; assay: as above
# [13] = biological target: T13, WEVKDCRS; assay: as above
# [14] = biological target: T14, VSGRLRIP; assay: as above
# [15] = biological target: T15, TVKYLNNL; assay: as above
# [16] = biological target: T16, VKDCRSFK; assay: as above
# [17] = biological target: T17, DCAAVKVF; assay: as above
# [18] = biological target: T18, KDCRSFKA; assay: as above
# [19] = biological target: T19, SNFHPLLV; assay: as above
# [20] = biological target: T20, LVSGRLRI; assay: as above
# [21] = biological target: T21, CSERHFVS; assay: as above
# [22] = biological target: T22, FHAERIVR; assay: as above
# [23] = biological target: T23, CRSFKALS; assay: as above
# [24] = biological target: T24, FHPLLVSG; assay: as above
# [25] = biological target: T25, PLLVSGRL; assay: as above
# [26] = biological target: T26, LY75 tryptic peptide … (1099-1109); assay: pull down of tryptic LY75 peptides on antibody-coupled protein A beads, LC-MS/MS
# [27] = biological target: T27, LY75 tryptic peptide … (896-910); assay: as above
# [28] = biological target: T28, LY75 tryptic peptide … (877 to 890); assay: as above
# [29] = biological target: T29, LY75 tryptic peptide … (1030-1044); assay: as above
binder,measurement,setting,value
B1,binding,[1],no binding (tested: 1 µg/mL)
same,binding,[2],binds
same,binding,[3],no binding (tested: 1 µg/mL)
same,binding,[4],no binding (tested: 1 µg/mL)
same,binding,[5],no binding (tested: 1 µg/mL)
same,binding,[6],no binding (tested: 1 µg/mL)
same,binding,[7],no binding (tested: 1 µg/mL)
same,binding,[8],no binding (tested: 1 µg/mL)
same,binding,[9],no binding (tested: 1 µg/mL)
same,binding,[10],no binding (tested: 1 µg/mL)
same,binding,[11],no binding (tested: 1 µg/mL)
same,binding,[12],no binding (tested: 1 µg/mL)
same,binding,[13],no binding (tested: 1 µg/mL)
same,binding,[14],no binding (tested: 1 µg/mL)
same,binding,[15],no binding (tested: 1 µg/mL)
same,binding,[16],no binding (tested: 1 µg/mL)
same,binding,[17],no binding (tested: 1 µg/mL)
same,binding,[18],no binding (tested: 1 µg/mL)
same,binding,[19],no binding (tested: 1 µg/mL)
same,binding,[20],no binding (tested: 1 µg/mL)
same,binding,[21],no binding (tested: 1 µg/mL)
same,binding,[22],no binding (tested: 1 µg/mL)
same,binding,[23],no binding (tested: 1 µg/mL)
same,binding,[24],no binding (tested: 1 µg/mL)
same,binding,[25],no binding (tested: 1 µg/mL)
same,binding,[26],binds
same,binding,[27],binds
same,binding,[28],binds
same,binding,[29],binds
